Laboratory results published in PubChem BioAssay AID651568 (National Center for Advancing Translational Sciences (NCATS), 2012).
The campaign covered roughly 1,200 compounds. About 55 (5%) were called active. About 15% were inconclusive and are not listed. The call rests on the fitted dose curve; in most records, active means well fitted inhibition curve with a large enough effect; inconclusive means small, poorly fitted or top-dose-only effect; inactive means no such curve, though single readings can be large or run the other way. Some of the results follow.

test: qHTS Assay to Find Inhibitors of Chronic Active B-Cell Receptor Signaling: Hit Validation in Renilla Reporter Assay; conditions: TMD8 IkB-Renilla luciferase reporter, NF-kB signaling; series mostly up to 57.5 µM; activity change, negative = inhibition: at the top concentration; further: nearly all actives have a fitted effect of over 70% in size
How it was run: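 Dual-Glo luminescence read-out of constitutively expressed IkB-Photinus/Renilla luciferase reporters in ABC-DLBCL lines, used to retest primary hits; reporter enzymes differ from the click beetle luciferases used in the primary screen.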
On the % scale 0 is the no-effect control and ±100 the full control effect.

Activity change, negative = inhibition, inactive:
COC(=O)C1C(O)=C(C=Nc2ccccc2)C(=O)CC1(C)C (configuration not stated) -1.84%, NC(=S)N=Nc1c(O)n(Cc2ccc(Br)cc2)c2ccccc12 -29.3%, CN(C(=O)c1ccc(-c2nn(C)c(=O)c3ccccc23)cc1)C1CCCCC1 0.45%, Cc1noc(C)c1CSc1ncnc2ccccc12 -12.4%, CS(=O)(=O)C1=C(O)C(=O)N(c2ccccc2)C1c1ccccc1 (configuration not stated) 3.86%, COc1c(Cl)cc(C(=O)NN)cc1Cl -13.8%, C=CCN(C(=O)CSC1=NC(=O)CN1C(C)=O)c1nc(C)c(-c2ccccc2)s1 58.9%, COc1ccc(C2=NC(C)(C)Cc3cc(OC)c(OC)cc32)cc1OC 3.33%, COc1cc(NC(=O)CSc2nc3[nH]ncc3c(=O)n2-c2ccccc2C)cc(OC)c1OC -2.43%, CC1=CC(C)(C)N(S(=O)(=O)c2ccc(C)cc2)c2ccccc21 -23.4%, Cc1ccc(C)c(NC(=S)N=Nc2c(O)n(C)c3ccc(S(=O)(=O)N4CCOCC4)cc23)c1 -21.4%, COC(=O)c1ccc(C)c(NS(=O)(=O)c2ccc3c(c2)OCCO3)c1 36.8%, COc1cc(Cc2nccc3cc(OC)c(OC)cc23)c(NC(C)=O)cc1OC -1.23%, N#CCCn1cc(/C=N/NC(N)=S)c(-c2ccc(Br)cc2)n1 1%, O=C(NN=C1CCCC1)c1n[nH]c2c1CCC2 4.81%, COc1cc(C(=O)NCc2cc(C)nc3ccccc23)cc(OC)c1OC 6.55%, NC(=O)NC[C@@H]1CC[C@@H](Cc2ccc(-c3ccccc3)cc2)O1 0.277%, Cc1[nH]n(C(N)=S)c(=O)c1N=Nc1cccc(Cl)c1 -4.65%, CCNC(=O)[C@H]1O[C@@H](n2cnc3c(N)nc(NCCc4ccc(CCC(=O)O)cc4)nc32)[C@H](O)[C@@H]1O -1.91%, CCC(C)NC(=O)c1ccccc1NC(=O)c1ccc(CSc2ccccc2)cc1 (configuration not stated) 1.11%, Cc1ccccc1Nc1nc(N)nc(COC(=O)c2cccc(S(=O)(=O)N(C)C)c2)n1 15%, CCc1cc2c(SCC(=O)Nc3ccc(NC(C)=O)cc3)ncnc2s1 8.38%, CN(CC(=O)Nc1ccc2c(c1)OCCO2)Cc1nc2ccccc2c(=O)[nH]1 -15%, CCN(CC)c1ccc2cc(-c3nc4ccccc4n3C)c(=O)oc2c1 -11.6%, COc1cc(C(=O)O/N=C(\N)c2ccc([N+](=O)[O-])cc2)cc(OC)c1OC 8.2%, COc1cc(OC)cc(C(=O)N[C@H](C(=O)Nc2nc3ccccc3[nH]2)C(C)C)c1 -25.8%, Cc1ccc(C)c(Cn2c(=O)n(-c3ccc(CC(=O)NCc4ccco4)cc3)c(=O)c3sccc32)c1 -11%, COc1cc2c(c(OC)c1OC)-c1ccc(OC)c(=O)cc1[C@@H](N(C)CC#CCO)CC2 -10.2%, O=C(Nc1ccc(N2CCCC2)cc1)c1cc(Cl)ccc1Cl -23.5%, O=C(CSc1cccc[n+]1[O-])CSc1cccc[n+]1[O-] -16.3%, COc1ccc2nc(NC(=S)NC(=O)c3ccco3)sc2c1 -4.21%, S=c1c2c(nc3nc[nH]n13)CCC2 1.81%, COc1cc(OC)cc(C(=O)N2CC(=O)Nc3ccccc32)c1 -10.2%, CCCc1nnc(NC(=O)CCC(=O)NCCc2ccc(OC)c(OC)c2)s1 -17.6%, Cc1ccc(NC(=S)NC(=O)C2CC2)cc1Cl 2.69%, Cc1ccc(N=Nc2c(C)[nH]n(C(N)=S)c2=O)cc1 3.24%, COCCNC(=S)N/N=C(\C)c1ccc(Cl)c(Cl)c1Cl 0.132%, Cc1ccc(Sc2c(CO)c(-c3ccccc3)nn2C)cc1 4.68%, CCCCC[C@H](O)/C=C/[C@H]1CCC(=O)[C@@H]1CCCCCCC(=O)N1CCCCC1CO (some centres not stated) -12.4%, Nc1ncnc2c1ncn2C1OC(C(=O)NC2CC2)C(O)C1O (configuration not stated) -1.87%, CCCOc1ccccc1C1CC(=O)Nc2cc3c(cc21)OCO3 (configuration not stated) -29.4%, Cc1cc2nc(/C=C/c3cccnc3)[nH]c2cc1C -18.3%, N#CC(C#N)=C(N)CSc1cccc[n+]1[O-] 2.92%, NNC(=O)c1[nH]c2ccc([N+](=O)[O-])cc2c1-c1ccccc1 -13.4%, COc1cc(C2Nc3ccccc3C(=O)N2c2ccc(Cl)cc2)c(Cl)cc1OCC(=O)O (configuration not stated) -8.32%, Cc1ccc(C)c(NS(=O)(=O)c2ccc(-c3cnc(C4CC4)o3)cc2)c1 -22.1%, Oc1ccc(-c2nc3cnccn3c2Nc2ccc3c(c2)OCCO3)cc1 4.29%, CCOc1ccc(N(CC(=O)Nc2ccccc2OCC)S(=O)(=O)c2c(C)noc2C)cc1 -3.84%, Cc1cc(=O)c(C(=O)Nc2cccc(N3CCCC3=O)c2)nn1-c1ccccc1Cl 1.45%, COc1cc([C@@H]2c3cc4c(cc3[C@H](O)[C@H]3COC(=O)[C@H]23)OCO4)cc(OC)c1OC -16%, CCOC(=O)C(C)N1C(=O)S/C(=C/c2ccc3c(c2)n(C)c(=O)n3C)C1=O (configuration not stated) 1.42%, CCCCC[C@H](O)/C=C/[C@@H]1[C@@H](C/C=C\CCCC(=O)O)[C@H]2CO[C@@H]1C2 -2.61%
